In PubChem BioAssay AID1346428 (National Center for Advancing Translational Sciences (NCATS), 2018):
Among all 48,000 compounds or so, about 1,200 (2.5%) were called active. Another 2% or so got no clear call; they are omitted.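 Rule for the calls: active = activation of at least 60% and not above a set upper limit (about 1 call in 100 departs from these limits); inconclusive = activation of 40% to 60%, or above that upper limit; inactive = activation under 40%.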 The list shows a part of the results.

molecular target: Probable G-protein coupled receptor 32 (Homo sapiens) (UniProt O75388); test: qHTS for Agonists of Human Resolvin D1 Receptor DRV1; conditions: CHO-K1 GPR32 beta-arrestin PathHunter luminescence, 90 min; at 76.9 µM; active compounds read high; zero percent set by DMSO-only wells; note: 0% is about no effect
In short: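 PathHunter enzyme-fragment complementation, CHO-K1 GPR32 stable line; 2,500 cells/well, overnight attach; cpd 90 min 37 °C 5% CO2; detection reagent 1 h RT; chemiluminescence. DMSO = EC0.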

UniProt O75388, sequence (O75388 whole entry, looked up, the tested form may be a part): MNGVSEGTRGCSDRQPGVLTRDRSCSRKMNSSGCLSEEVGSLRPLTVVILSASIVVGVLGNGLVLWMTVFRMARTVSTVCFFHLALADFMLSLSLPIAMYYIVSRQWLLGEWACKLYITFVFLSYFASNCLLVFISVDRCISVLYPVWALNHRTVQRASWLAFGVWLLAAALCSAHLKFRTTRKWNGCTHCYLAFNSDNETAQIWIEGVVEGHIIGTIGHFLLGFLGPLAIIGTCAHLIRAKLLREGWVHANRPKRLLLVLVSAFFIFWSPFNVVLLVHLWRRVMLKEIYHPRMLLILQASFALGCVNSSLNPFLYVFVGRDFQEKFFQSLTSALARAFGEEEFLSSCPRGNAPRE

activation, active:
COc1ccc(N2CCN(S(=O)(=O)c3ccc(F)c(C(=O)Nc4ccccc4Cl)c3)CC2)cc1 90.7%

activation, inactive:
Cc1cccc(N(C)c2nc3ccccc3c3nnc(C)n23)c1 -22.7%
Cc1ccc(NC(=O)CSc2nnc(-c3ccc([N+](=O)[O-])cc3)o2)c(C)c1 0.0635%
Cc1ccc(C(=O)c2cn(CC(=O)Nc3ccc(C(C)C)cc3)c3nc(C)ccc3c2=O)cc1 17.1%
CCS(=O)(=O)N1CCCC(C(=O)NCCOC)C1 (configuration not stated) -8.82%
CCCCCn1c(NCc2ccc(OC)cc2)nc2ccccc21 5.78%
CCOc1ccc(-c2nc3c(c(SCC(=O)Nc4ccccc4C)n2)Cc2ccccc2O3)cc1 4%
COc1ccccc1OC(C)C(=O)Nc1cccc(-c2nc3ccccc3s2)c1 (configuration not stated) -1.6%
COc1ccc(-n2nc(C(=O)Nc3ccccn3)c3c4ccccc4n(C)c3c2=O)cc1 8.07%
CCOC(=O)c1ccc(NC(=O)c2cnc3c(-c4ccc(F)cc4)c(C)nn3c2C)cc1 -6.75%
Cc1cc(C)n(-c2nc3ccccc3nc2Nc2ccc(N(C)C)cc2)n1 -12.8%
Cc1ccccc1NC(=O)CC(NCc1cccnc1)C(=O)O (configuration not stated) -4.22%
CCc1ccc(CNC(=O)c2cnc3sc(N4CCCC4)nn3c2=O)cc1 -0.732%
Cc1ccc(Cl)cc1NC(=O)C1CCN(c2nnc(C)c3c(C)n(-c4ccccc4)nc23)CC1 -8.49%
CN(C)c1ccc(CNC(=O)c2ccc(Cn3c(SCc4ccccc4)nc4cccnc43)cc2)cc1 -31.2%
Cc1ccccc1CNC(=O)c1ccc2c(c1)c(C)c(C)n2C -22.5%
Cc1cc(C)c(Cn2c3ccccc3c3cnn(CC(=O)NCc4cccs4)c(=O)c32)c(C)c1 -16.9%
Cc1ccccc1Cn1nnc2c(=O)[nH]c(C3CCN(C(=O)c4ccc(F)cc4)CC3)nc21 -13.7%
COc1ccc(-c2noc(CNC(=O)c3ccccc3Br)n2)cc1 9.52%
CCOc1ccc(-c2cccc(NS(=O)(=O)c3ccc(F)cc3F)c2)nn1 -12.9%
Cc1ccc(S(=O)(=O)CC(=O)Nc2nc3c(C)cc(C)cc3s2)cc1 -12.5%
Cc1cccc(C(=O)Nc2nnc(S(=O)(=O)N(C)Cc3ccccc3)s2)c1 43.9%
COc1ccc(C(=O)c2oc3ccccc3c2NC(=O)c2cc(=O)c3ccc(C)cc3o2)cc1Cl -7.94%
CCCOc1ccc(C2c3c(-c4ccccc4O)n[nH]c3C(=O)N2CCc2ccccc2)cc1OCC (configuration not stated) 6.82%
COc1cccc(NC(=O)c2cccc3c(=O)c4c([nH]c23)CCCC4)c1 1.19%
CCOc1ccc(OCC)c(NC(=O)c2cc(S(=O)(=O)N3CCc4ccccc43)cn2C)c1 -27.5%
C1CCc2nnnn2CC1 -11.2%
CCOc1ccc2ncc3c(-c4ccc(C)cc4)nn(-c4cccc(F)c4)c3c2c1 -2.01%
O=S(=O)(c1cccc(Cl)c1)c1nnn2c1nc(NCc1ccc3c(c1)OCO3)c1sccc12 -22.3%
Cc1ccc(S(=O)(=O)NCC(c2ccco2)N2CCOCC2)cc1 (configuration not stated) 13.2%
COc1ccc(-c2nc3c(c(SCC(=O)N4CCCCC4)n2)Cc2cc(C)ccc2O3)cc1 -7.38%
CCOC(=O)CSc1nc(-c2ccc(OCC)cc2)cc(C(F)(F)F)c1C#N -13.6%
CC(=O)Nc1ccc(/C=C/c2noc(-c3ccccc3O)n2)cc1 -2.89%
Cc1ccc(C)c(N2CCN(C(=O)Cn3cnc4onc(-c5ccc(F)cc5)c4c3=O)CC2)c1 -9.05%
O=C(O)c1ccccc1S 1.74%
CCc1nnc(NC(=O)c2cc(=O)c3cc(C)ccc3o2)s1 -0.388%
COc1ccccc1CNC(=O)C(=O)NCC(c1cccs1)S(=O)(=O)c1ccccc1 (configuration not stated) 0.0195%
Cc1ccc2oc(=O)c3cc(C(=O)NCCCOC(C)C)sc3c2c1 -10%
CCc1cccc(NC(=O)Cn2c(C(=O)OC)cc3sc(Cl)cc32)c1 -0.103%
Cc1ccc(-n2c(SCc3ccccc3F)nc3[nH]ncc3c2=O)cc1Cl -23%
CCN(CC)CCNC(=O)C1CCN(C(=O)c2cnn(-c3ccccc3)c2-n2cccc2)CC1 -29.2%
COCCc1ccccn1 -2.29%
O=C(NCc1ccccc1)C1CCN(S(=O)(=O)Cc2ccccc2)CC1 5%
CCOC(=O)N1CCc2c(sc3c2C(=O)NC(c2ccc(N(C)C)cc2)N3)C1 (configuration not stated) -13.1%
Cc1ccc2nc(NC(=O)CSc3[nH]c(=O)ncc3C)sc2c1 -4.57%
Cc1ccc(NC(=O)CSc2nc(=O)cc(N)n2-c2ccccc2)cc1 -4.22%
CC(=O)NCCNC(=O)CCCn1c(=O)[nH]c2ccsc2c1=O -16.3%
CCCCOc1ccc(C2c3c(oc4ccc(C)cc4c3=O)C(=O)N2CCCN(C)C)cc1OCC (configuration not stated) -7.73%
O=Nc1ccc2oc(=O)ccc2c1 -14.8%
Cc1ccc(C)c(NS(=O)(=O)c2cc3c(cc2C)n(C)c(=O)c(=O)n3C)c1 0.269%
Cc1ccc(-n2c(/C=C/c3c(C)n(C)c4ccccc34)nc3ccccc3c2=O)cc1 -6.48%
CCN(CC)S(=O)(=O)c1cccc(C(=O)Nc2ccccc2C(=O)Nc2ccc(Cl)cc2)c1 -11.1%
COCCN(CCOC)S(=O)(=O)c1ccc(C(=O)Nc2sc3c(c2C(=O)OC)CCN(C)C3)cc1 -2%
CC(=O)c1ccc(NC(=O)c2cc(C)nn2-c2ccccc2)cc1 -13.7%
CCOC(=O)c1c(NC(=O)Cc2coc3cc(C)cc(C)c23)sc2c1CCC2 3.49%
COC(=O)c1c(NC(C)=O)c2c3c(sc2n1Cc1cc(C)ccc1C)CCCC3 -7.23%
O=[N+]([O-])c1ccc(CSc2ncnc3c2ncn3[C@@H]2O[C@H](CO)[C@@H](O)[C@H]2O)cc1 -7.11%
CN(C)S(=O)(=O)N(CC(=O)NCCSCc1c(F)cccc1Cl)c1ccccc1 38.4%
CCOC(=O)c1ccccc1NC(=O)c1sc2nc3n(c(=O)c2c1C)CCCCC3 -5.32%
CCCCN(CCCNC(=O)c1cc(Nc2cccc(SC)c2)nc2ccccc12)Cc1ccccc1 -18.1%
CCOc1cccc(C(=O)Nc2ccc(-c3nc4ncccc4o3)cc2C)c1 -1.12%
Cc1ccc(NC(=O)c2cc(S(=O)(=O)N3CCC4(CC3)OCCO4)ccc2F)cc1Cl -32.5%
Cc1ccc(S(=O)(=O)N2CCC(N3CCN(Cc4ccccc4)C(=O)C3=O)CC2)cc1C 27.6%
O=c1[nH]c(SCc2c(F)cccc2Cl)nc2c1CCC2 25%
Cc1cccc(-n2c(C)cc(C(=O)C(=O)Nc3ccccc3F)c2C)c1C -3.01%
CCCN1CCN(CCCNC(=O)c2cc3c(=O)n(CC)c4ccccc4c3s2)CC1 10%
COc1ccc(CC(=O)N2CCc3cc(OC)c(OC)cc3C2COc2ccc(F)cc2)cc1 (configuration not stated) -8.12%
COc1ccc(OC)c(NC(=O)c2oc(=O)c3ccccc3c2-c2ccccc2)c1 -8.86%
Cn1nc(-c2ccccc2F)c2cc(C(=O)NCc3ccccc3Cl)sc21 -3.22%
COc1cc2c(cc1OC)C(c1cccc(Cl)c1)CC(=O)N2 (configuration not stated) 49.9%
N#CCC(=O)NN 9.05%
COc1ccc(Cl)cc1NC(=O)N1CCN(S(=O)(=O)c2ccc3c(ccn3C)c2)CC1 -10%
CC(C)(C)OC(=O)N1CCC(c2c(C(=O)NCc3cccs3)cnn2-c2cccc(F)c2)CC1 -13.6%
CCOc1ccc(NCc2cccn2-c2nnc(N3CCC(C(=O)NCc4ccccc4Cl)CC3)s2)cc1 -24.3%
O=C(c1ccc(F)cc1)N1CCc2c([nH]c3ccccc23)C1c1ccc(Cl)cc1 (configuration not stated) -34.7%
CCc1ccc(OCCSc2nc3ccccc3n2CC(=O)N2CCCCC2)cc1 -32%
COc1ccccc1N1CCN(c2ncnc3c2c(-c2ccccc2)cn3-c2cccc(Cl)c2)CC1 -27.5%
CCc1nn(C(CC)C(=O)NCc2ccc(OC)c(OC)c2)c(=O)c2cc3oc(C)cc3n12 (configuration not stated) 18.2%
Cc1nn(-c2nc(-c3ccccc3)cc(C(F)(F)F)n2)c(C)c1Cl -13.7%
COc1cc(/C=C(\C#N)c2nc3ccc(C)cc3[nH]2)ccc1OCc1ccc(C)cc1 -3.21%
CCOc1ccc2c(c1)c(=O)c(C(=O)c1ccc3c(c1)OCO3)cn2Cc1ccc(F)cc1 -14.8%
CC(N)CCCC(C)(C)O (configuration not stated) -4.71%
CCCCNC(=O)c1cccc(NC(=O)c2nsc3ccccc23)c1 -9.14%
COc1ccc(S(=O)(=O)N2CCC(Oc3ccc(-n4cnnn4)cc3)CC2)cc1 3.56%
COc1cccc(OC)c1C(=O)NCCc1sc(-c2cccc(F)c2)nc1C 48.3%
CCN(C(=O)c1cn(-c2cccc(OC)c2)c(=O)c2ccccc12)c1ccccc1C -16%
CCc1ccc(C2C(C(=O)Nc3ccccc3OC)=C(C)Nc3c(C(=O)Nc4ccc(C)cc4)cnn32)cc1 (configuration not stated) -14.7%
